Reference: a compilation of properties of binary mixtures (doi:10.1016/j.tca.2013.02.002)
The densities may have been worked out from excess volumes.

Assay: xn = mol fraction of the nth substance listed
Details: 101 kPa

## CS(C)=O + CC[NH+](CC)CC.O=S(=O)([O-])O
298.15 K, x1 = 1
  mass density: 1095.4 kg/m3
303.15 K, x1 = 1
  mass density: 1092.4 kg/m3
308.15 K, x1 = 1
  mass density: 1086.1 kg/m3

## CC[NH+](CC)CC.O=S(=O)([O-])O + CS(C)=O
298.15 K, x2 = 0
  mass density: 1142.9 kg/m3
298.15 K, x2 = 0.0557
  mass density: 1141.3 kg/m3
298.15 K, x2 = 0.108
  mass density: 1139.8 kg/m3
298.15 K, x2 = 0.1556
  mass density: 1138.3 kg/m3
298.15 K, x2 = 0.2473
  mass density: 1135.4 kg/m3
298.15 K, x2 = 0.3279
  mass density: 1132.6 kg/m3
298.15 K, x2 = 0.4004
  mass density: 1129.9 kg/m3
298.15 K, x2 = 0.4964
  mass density: 1126 kg/m3
298.15 K, x2 = 0.5798
  mass density: 1122.3 kg/m3
298.15 K, x2 = 0.653
  mass density: 1118.6 kg/m3
298.15 K, x2 = 0.7376
  mass density: 1114 kg/m3
298.15 K, x2 = 0.7812
  mass density: 1111.5 kg/m3
298.15 K, x2 = 0.8269
  mass density: 1108.5 kg/m3
298.15 K, x2 = 0.8772
  mass density: 1105.1 kg/m3
298.15 K, x2 = 0.9156
  mass density: 1102.2 kg/m3
303.15 K, x2 = 0
  mass density: 1141.8 kg/m3
303.15 K, x2 = 0.0244
  mass density: 1141.1 kg/m3
303.15 K, x2 = 0.0557
  mass density: 1140.2 kg/m3
303.15 K, x2 = 0.108
  mass density: 1138.7 kg/m3
303.15 K, x2 = 0.1556
  mass density: 1137.2 kg/m3
303.15 K, x2 = 0.199
  mass density: 1135.9 kg/m3
303.15 K, x2 = 0.2473
  mass density: 1134.2 kg/m3
303.15 K, x2 = 0.3279
  mass density: 1131.3 kg/m3
303.15 K, x2 = 0.4004
  mass density: 1128.5 kg/m3
303.15 K, x2 = 0.4964
  mass density: 1124.6 kg/m3
303.15 K, x2 = 0.5798
  mass density: 1120.7 kg/m3
303.15 K, x2 = 0.7376
  mass density: 1112.2 kg/m3
303.15 K, x2 = 0.7812
  mass density: 1109.5 kg/m3
303.15 K, x2 = 0.8269
  mass density: 1106.4 kg/m3
303.15 K, x2 = 0.8772
  mass density: 1102.8 kg/m3
303.15 K, x2 = 0.9156
  mass density: 1099.8 kg/m3
303.15 K, x2 = 0.9539
  mass density: 1096.6 kg/m3
308.15 K, x1 = 0.011
  mass density: 1087.3 kg/m3
308.15 K, x2 = 0
  mass density: 1140.7 kg/m3
308.15 K, x2 = 0.0244
  mass density: 1140 kg/m3
308.15 K, x2 = 0.0557
  mass density: 1139 kg/m3
308.15 K, x2 = 0.108
  mass density: 1137.4 kg/m3
308.15 K, x2 = 0.1556
  mass density: 1135.8 kg/m3
308.15 K, x2 = 0.199
  mass density: 1134.3 kg/m3
308.15 K, x2 = 0.3279
  mass density: 1129.5 kg/m3
308.15 K, x2 = 0.4964
  mass density: 1122 kg/m3
308.15 K, x2 = 0.5798
  mass density: 1117.8 kg/m3
308.15 K, x2 = 0.653
  mass density: 1113.7 kg/m3
308.15 K, x2 = 0.7376
  mass density: 1108.4 kg/m3
308.15 K, x2 = 0.7812
  mass density: 1105.4 kg/m3
308.15 K, x2 = 0.8269
  mass density: 1102 kg/m3
308.15 K, x2 = 0.8772
  mass density: 1097.9 kg/m3
308.15 K, x2 = 0.9156
  mass density: 1094.4 kg/m3
308.15 K, x2 = 0.9539
  mass density: 1090.9 kg/m3
